Test results taken from PubChem BioAssay AID493208 (National Center for Advancing Translational Sciences (NCATS), 2011).
In all, about 44,000 compounds went through this assay and about 340 (0.77%) were called active. Not shown: some 5% with an inconclusive outcome. The call rests on the fitted dose curve; in most records, active means well fitted inhibition curve with a large enough effect; inconclusive means small, poorly fitted or top-dose-only effect; inactive means flat fitted curve, though single readings scatter. The list shows a part of the results.

Experiment: Acumen qHTS Assay for Inhibitors of the mTORC1 Signaling Pathway in MEF (Tsc2-/-, p53-/-) Cells: Sytravon; further: nearly all actives have a fitted effect of over 50% in size;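 on activity change, negative = inhibition: plate controls were DMSO for no effect and rapamycin for full effect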
Conditions: phospho-rpS6 immunofluorescence/PI, 24 h; series mostly up to 38.3 µM; activity change, negative = inhibition: at the top concentration
Outline: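 Read-out: phospho-S6 Alexa-488 intensity over PI intensity per well, scored as % active cells using thresholds from rapamycin (7.5 nM) and DMSO controls. Tsc2-/-, p53-/- MEFs exposed to compound for 24 h; PI cell count recorded as viability.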
Potency means the concentration at half of the fitted maximal effect.

SMILES | activity change, negative = inhibition | Potency
Cc1ccc(CNC(=O)c2c(-c3ccccc3F)noc2C)o1 | inactive: 14.1% | –
O=C(Nc1ccc(S(=O)(=O)N2CCC(c3nc4ccccc4s3)CC2)cc1)c1ccccc1F | inactive: -21.6% | –
Cc1cccc(C(=O)Nc2ccc(N3CCC(CCN4CCOCC4)CC3)c(C(=O)O)c2)c1 | inactive: -3.13% | –
CCN(C(=O)NCc1noc2ccccc12)c1cc(C)ccc1C | inactive: -4.1% | –
CCOC(=O)c1nc(Nc2cccc(C)c2)c2ccccc2n1 | inactive: 4.1% | –
CCCCCOc1ccc(C(=O)N(Cc2ccccc2)C2CCS(=O)(=O)C2)cc1 (stereo not given) | inactive: -12.7% | –
CCOc1ccc(CNC(=O)CCn2cccn2)cc1OC | inactive: -2.57% | –
CCN(CCCNC(=O)c1nn(-c2ccc(OC)cc2)c(=O)c2c1c1ccccc1n2C)c1cccc(C)c1 | inactive: 1.83% | –
COc1ccc(-c2cccc(NS(=O)(=O)c3cc(C)c(Cl)cc3C)c2)nn1 | inactive: 0.0941% | –
Cc1cccc(CS(=O)(=O)Cc2ccc(C(=O)NCc3ccc(Cl)cc3)o2)c1 | inactive: -11.3% | –
CCCCC12CN3CC(C)(CN(C1)C3c1c(C)[nH]c(=O)[nH]c1=O)C2=O (stereo not given) | inactive: -10.1% | –
CCOc1ccc(CCNC(=O)c2cc3c(-c4cccc(OC)c4)nn(C)c3s2)cc1OCC | inactive: -10.4% | –
CCOc1ccc(NC(=O)CN2C(=O)C(c3ccccc3)=NC23CCCCCC3)cc1 | inactive: -7.17% | –
Cc1cccc(Cn2c(C)c(C)c3cc(C(=O)NCc4ccc(C)o4)ccc32)c1 | inactive: 0% | –
Cc1cc(NC(=O)CN(C)S(=O)(=O)c2ccc3c(c2)CCC(=O)N3)ccc1Br | inactive: 1.16% | –
CCC(C(=O)NCCc1ccc(Cl)cc1)n1nc(C)c2c(C)n(-c3ccccc3)nc2c1=O (stereo not given) | inactive: -1.43% | –
Cc1nc2nc(SCC(=O)NC(C)c3ccccc3)nn2c(C)c1Cc1c(F)cccc1Cl (stereo not given) | inactive: 1.77% | –
CCOc1ccc(CN2C(=O)c3ccccc3Sc3ccc(C(=O)NCc4ccc(C)cc4)cc32)cc1 | inactive: -2.05% | –
COC(=O)c1ccc(NC(=O)CC2C(=O)N(c3cccc(OC)c3)C(=O)N2Cc2cccc(OC)c2)cc1 (stereo not given) | inactive: 0% | –
COc1cccc(CSc2nc3n(n2)C(c2ccccc2C)C(C(=O)Nc2ccccc2OC)=C(C)N3)c1 (stereo not given) | inactive: -3.92% | –
O=C(CSc1oc(-c2ccco2)nc1S(=O)(=O)c1ccc(Cl)cc1)c1ccccc1 | inactive: 0% | –
COCCCn1c(=N)c(C(=O)NC2CCCC2)cc2c(=O)n3ccccc3nc21 | inactive: -0.367% | –
Cc1ccc(-c2nc3c4cnn(-c5cc(Cl)ccc5Cl)c4ncn3n2)cc1 | inactive: 1.26% | –
Cc1ccc(CCNC(=O)CCSCc2ccc(Cl)cc2)cc1 | inactive: 11.3% | –

SMILES | activity change, negative = inhibition | Potency
Cc1ccc(S(=O)(=O)c2nnn3c2nc(Nc2ccc(C(C)C)cc2)c2sccc23)cc1C | inactive: -0.393% | –
CCOc1ccc(-n2c(SCc3nc(-c4ccccc4C)no3)nnc2-c2ccccc2)cc1 | inactive: -3.82% | –
CC(C)Cc1nn2c(=O)cc(COC(=O)c3ccccc3NC(=O)c3ccccc3)nc2s1 | inactive: 0.658% | –
CC(=O)Nc1ccc(NC(=O)CN2C(=O)CN(C)C(=O)c3ccccc32)cc1 | inactive: 0.909% | –
CCCn1c(=O)c2sccc2n2c(CCCC(=O)NCCOC)nnc12 | inactive: 4.14% | –
CN(C)c1ccc(CNc2nc(-c3ccco3)nn2C(=O)c2cccc([N+](=O)[O-])c2)cc1 | inactive: -0.107% | –
CN(C)c1ccc(CN(CC2CCCO2)C(=O)COc2ccc(Cl)cc2)cc1 (stereo not given) | inactive: -7.71% | –
CCc1ccc(-n2c(C)nc3cc(C(=O)NCCc4ccccc4)ccc32)cc1 | inactive: 9.94% | –
COc1cccc(CN2C(=O)c3ccccc3C2C(=O)NCCc2ccc(OC)c(OC)c2)c1 (stereo not given) | inactive: 11.6% | –
COc1ccccc1NC(=O)CSc1ncc2c(n1)-c1cc(Cl)ccc1N(C)S2(=O)=O | inactive: 8.43% | –
CC(C)CC(=O)Nc1ccc(C(=O)OCc2cc(=O)n3nc(C4CCCCC4)sc3n2)cc1 | inactive: 9.06% | –
Cc1nc(N2CCCC2)ncc1C(=O)Nc1ccccc1 | inactive: 14.7% | –
Cc1cc(O)c(C(c2cccc(Cl)c2)N2CCN(c3ccccc3)CC2)c(=O)n1Cc1ccco1 (stereo not given) | inactive: -3.7% | –
CC(=O)N1CCCc2cc(S(=O)(=O)N3CCCC(C(=O)NCc4ccc(Cl)cc4)C3)ccc21 (stereo not given) | inactive: 0.182% | –
CCC1CN(C(=O)NCc2ccc(F)cc2)c2ccccc2O1 (stereo not given) | inactive: 5.38% | –
Cc1ccc(NC(=O)c2ccco2)c(OCc2cc(=O)n3cc(C)sc3n2)c1 | inactive: 0.117% | –
COc1ccc(-n2c(=O)c3c4c(sc3n(Cc3cc(=O)n5c(C)cccc5n3)c2=O)CCC4)c(OC)c1 | inactive: -10.4% | –
CCc1ccc(CNC(=O)CSCc2cnn(-c3ccccc3)c2-n2cccc2)cc1 | inactive: -7.47% | –
Cc1ccc(Cn2c(=O)c3ccccc3n3c(-c4ccccc4)nnc23)cc1 | inactive: 4.64% | –
COc1ccc(C2CC(=O)N3CN(C4CCCCC4)CSC3=C2C#N)cc1 (stereo not given) | inactive: 0.638% | –
COc1ccc(NC(=O)CCCS(=O)(=O)c2nc(-c3ccc(OC)c(OC)c3)cc(C(F)(F)F)n2)cc1OC | – | active: 11.7 µM
Cc1ccc(OCC(=O)Nc2ccc3nc(SCC(=O)N4CCCC4)sc3c2)cc1C | inactive: -0.634% | –
O=C(Nc1ccc2c(c1)N(C1CCCC1)C(=O)c1ccccc1S2)c1ccccc1 | inactive: -1.72% | –
COc1cccc(-c2nc(CS(=O)CC(=O)N3CCN(c4cccc(C(F)(F)F)c4)CC3)c(C)o2)c1 (stereo not given) | inactive: -16.4% | –

SMILES | activity change, negative = inhibition | Potency
COc1ccc(CCNC(=O)C(=O)NCC(c2cccs2)S(=O)(=O)c2ccccc2)cc1 (stereo not given) | inactive: -9.28% | –
CCN1C(=O)CC(C(=O)Nc2ccc(OC)cc2)SC1=Nc1ccc(C)c(C)c1 (stereo not given) | inactive: -16.7% | –
CCOC(=O)c1noc2ncn(CC(=O)O)c(=O)c12 | inactive: -13.1% | –
O=C(NCCC1=CCCCC1)c1ccc2c(c1)N(Cc1ccccc1)C(=O)c1ccccc1S2(=O)=O | inactive: -16.8% | –
O=C(Cn1cc(SCc2ccccc2Cl)c2ccccc21)N1CCCCCC1 | inactive: -4.64% | –
COc1ccc(OC)c(CNS(=O)(=O)c2ccc(-c3cc(C(F)(F)F)on3)s2)c1 | inactive: -26.8% | –
Cc1ccc(N2CCN(C(=O)c3nn(C)c4c3CSc3ccccc3-4)CC2C)cc1 (stereo not given) | inactive: 0.712% | –
Cc1ccc(CNC(=O)CN(c2cc(C)cc(C)c2)S(=O)(=O)c2c(C)[nH]c(=O)[nH]c2=O)cc1 | inactive: -22.2% | –
CCc1ccc(C2c3c(n[nH]c3C)C(=O)N2c2ccc(C)cc2)cc1 (stereo not given) | inactive: -4.84% | –
CCc1cccc(NC(=O)CCS(=O)(=O)c2ccc(C)cc2)c1 | inactive: 1.88% | –
CCOc1ccc(-c2ccc(CO)o2)cc1N | inactive: 0.607% | –
O=C(NC1CCCC1)c1ccc2c(c1)N(Cc1ccc(F)cc1)C(=O)c1ccccc1S2 | inactive: -12.6% | –
COc1ccc(NC(=O)C(Cc2ccccc2)n2cccc2)c(OC)c1 (stereo not given) | inactive: 1.47% | –
CC(C)CCNC(=O)CSc1nc2ccsc2c(=O)n1Cc1ccccc1Cl | inactive: -1.88% | –
COc1ccc(-c2noc(-c3ccccc3NC(=O)c3cc(OC)c(OC)c(OC)c3)n2)cc1 | inactive: 1.27% | –
O=S(=O)(Nc1nc2n(n1)C(c1ccccc1)C=C(c1ccc(Cl)cc1)N2)c1ccccc1 (stereo not given) | inactive: -1.25% | –
O=C(NCc1ccc(Cl)cc1)C1CCCN(c2ncnc3onc(-c4ccc(F)cc4)c23)C1 (stereo not given) | inactive: 6.61% | –
Cc1cccc(NC(=O)c2c(Br)sc3c2CCCC3)c1 | inactive: -0.168% | –
COc1ccc(Nc2nnc(-c3ccc(C)c(S(=O)(=O)N4CCOCC4)c3)c3ccccc23)cc1 | inactive: 12.3% | –
COc1ccccc1N1CCN(C(=O)CSc2nc(-c3ccc(C(C)C)cc3)no2)CC1 | inactive: 0% | –
O=C(COc1ccccc1F)Nc1nnc(S(=O)(=O)N2CCCCCC2)s1 | inactive: 0% | –
CCOc1cc(C2c3c(oc4ccc(F)cc4c3=O)C(=O)N2Cc2ccc(C)cc2)ccc1O (stereo not given) | inactive: -6.1% | –
CCCCNC(=O)CSc1nc2n[nH]c(C)c2c(=N)n1-c1ccccc1CC | inactive: -8.15% | –
COc1ccc(C2CC(=O)c3c([nH]c(C(=O)OCc4ccccc4)c3C)C2)cc1OC (stereo not given) | inactive: -18.6% | –

SMILES | activity change, negative = inhibition | Potency
CCC1CN(C(=O)Nc2cccc3c2CCCC3)c2cc(C)ccc2O1 (stereo not given) | inactive: 2.56% | –
CCOC(=O)c1c(C)oc2nc(C)nc(NCCCN3CCN(c4cccc(C)c4)C(C)C3)c12 (stereo not given) | inactive: -13.3% | –
Cc1ccccc1Cc1c(C)nc2nc(SCC(=O)NC(C)c3ccccc3)nn2c1C (stereo not given) | inactive: 0% | –
COc1ccccc1N(CC(=O)NCCSCc1ccccc1)S(C)(=O)=O | inactive: 7.5% | –
CCCCc1nn2c(=O)cc(COC(=O)c3cccc(OC)c3)nc2s1 | inactive: 0% | –
COc1ccc2c(c1)cc1c(=O)n(CC(=O)NCc3ccco3)nc(C)n12 | inactive: 0.468% | –
COc1ccc(-c2cc(C(F)(F)F)nc(SCC(=O)NCc3ccc(OC)c(OC)c3)n2)cc1 | inactive: -0.482% | –
CCc1nnc2c(Nc3cccc(C(C)=O)c3)nc3ccccc3n12 | inactive: 0.619% | –
CCOc1ccc(C(=O)NCc2ccc3c(c2)CCN3C(=O)c2ccccc2)cc1 | inactive: -7.47% | –
COc1ccc(-c2onc(C)c2C)cc1S(=O)(=O)NCc1ccco1 | inactive: 0% | –
CCc1ccc(CNC(=O)c2ccc3c(c2)nc2n3CCC(C)C2)cc1 (stereo not given) | inactive: -13.8% | –
CCCCc1nn2c(=O)cc(COC(=O)COc3ccc(C)cc3)nc2s1 | inactive: -7.63% | –
COc1ccc(C)cc1NC(=O)CN(c1ccccc1)S(=O)(=O)N(C)C | inactive: -5.52% | –
CCOC(=O)CN1C(=O)c2ccccc2Sc2ncccc21 | inactive: -0.828% | –
COc1ccc(NC(=O)CN2C(=O)COc3ccc(S(=O)(=O)Nc4ccccc4)cc32)cc1 | inactive: -2.06% | –
CCC12CN3CC(C)(CN(C1)C3c1c[nH]c3ccccc13)C2=O (stereo not given) | inactive: -7.04% | –
COc1ccc(/C=C\c2onc(C)c2S(=O)(=O)N2CCC(C(=O)Nc3ccc(C)cc3C)CC2)cc1 | inactive: 1.36% | –
CCc1ccc(NC(=O)CSC2=Nc3ccccc3C3=NC(CCC(=O)NCCc4ccccc4)C(=O)N23)cc1 (stereo not given) | inactive: -0.155% | –
CC1=C(C(=O)Nc2ccc(C)cc2C)C(c2ccc(O)cc2)n2nnnc2N1 (stereo not given) | inactive: 6% | –
O=C(Nc1ccc(F)cc1Cl)n1ncc2cc(Cl)ccc21 | inactive: -2.77% | –
CCC(=O)N1CCc2cc(S(=O)(=O)NC(CC(C)C)C(=O)Nc3cc(C)ccc3OC)ccc21 (stereo not given) | inactive: -15.1% | –
CCCOc1ccc(C(=O)Nc2cccc(NC(=O)c3cccc(Cl)c3)c2)cc1 | inactive: 27.5% | –
CCS(=O)(=O)c1ncc(N(Cc2ccco2)Cc2sccc2C)c(C(=O)Nc2ccc(C)cc2C)n1 | inactive: -0.735% | –
